# Assay results: PubChem BioAssay AID1963576 (National Center for Advancing Translational Sciences (NCATS), 2024)
# The whole screen tested about 46,000 compounds, of which about 60 (0.1%) were called active. Not shown: some 3% with an inconclusive outcome. Calls come from the whole dose curve; as a rule, active = well fitted inhibition curve with a large enough effect; inconclusive = small, poorly fitted or top-dose-only effect; inactive = no such curve, though single readings can be large or run the other way. The list shows a part of the results.
# Experiment: Primary qHTS assay for Inhibitors of ovarian cancer metastasis using an organotypic tumor microenvironment (TME) model.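 For Potency: count of GFP cancer cells still attached after washing and fixation.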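 For activity change, negative = inhibition: plate controls were DMSO wells for no effect and tomatine positive control wells for full effect.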 Note: nearly all actives have a fitted effect of over 65% in size.
# Conditions: SKOV3ip1-GFP adhesion/invasion on 3D omental model, fluorescence; series mostly up to 45.8 µM; activity change, negative = inhibition: at the top concentration
# How it was run: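 Primary human omental fibroblast/mesothelial 3D culture pre-formed 48 h. SKOV3ip1-GFP cells added with compounds (0.36-46 umol/L), incubated 2 h RT/16 h 37 C, fixed; GFP cells quantified at 488/509 nm.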
# Potency is the fitted concentration of half-maximal effect.
Compound,outcome,"activity change, negative = inhibition",Potency
Cc1ccccc1CNC(=O)Cn1c(=O)c2cccn2c2cccnc21,inactive,,
COc1ccc(CC(=O)N2CC(=O)Nc3ccc(F)cc3C2c2ccccc2)cc1 (configuration not stated),,inactive: 8.88%,
CCOC(=O)CNC(=O)N1CCN(S(=O)(=O)c2ccc3c(ccn3C)c2)CC1,,inactive: -6.84%,
COC(=O)c1ccccc1NC(=O)c1ccc(CN2CC(=O)N3CCCCC3C2=O)cc1 (configuration not stated),,inactive: -3.53%,
COc1ccc(C2=NC(c3ccccc3)=Nc3ccc(C)cc3N2)cc1,,inactive: -5.73%,
CCOC(=O)c1cc(S(=O)(=O)Nc2ccccc2)[nH]n1,inactive,,
CCC(C)NC(=O)c1c2c(nc3ccccc13)C(=O)N(C1CCCCC1)C2 (configuration not stated),,inactive: -1.32%,
CN1CCN(C(=O)c2ccc3c(c2)N(Cc2ccc(F)cc2)C(=O)c2ccccc2S3(=O)=O)CC1,,inactive: 9.19%,
COc1ccc(NC(=O)CSc2nnc(-c3ccncc3)n2-c2ccccc2)cc1,inactive,,
COc1ccccc1N1CCN(CC(O)COc2ccc(Cl)c(C)c2)CC1 (configuration not stated),inactive,,
CCOCCCN(Cc1ccco1)C(=O)c1cc2c(s1)-c1c(C)cccc1OC2,,inactive: -29.8%,
COc1ccc(C(=O)c2cn(CC(=O)Nc3cc(C)ccc3C)c3nc(C)ccc3c2=O)cc1,,inactive: 1.69%,
CC(C)Oc1ccc(CNC(=O)C2=Cc3ccccc3OC2)cc1,,inactive: -1.23%,
CCc1ccc(C2CC(=O)Nc3c2c(=O)n(C)c2ncnn32)cc1 (configuration not stated),,inactive: -14.4%,
COc1ccc(OC)c(NC(=O)c2nc(S(=O)(=O)Cc3ccc(F)cc3)ncc2Cl)c1,,,active: 6.31 µM
CCOC(=O)N[C@H](Cc1c[nH]c2ccccc12)C(=O)Nc1cccc(Cl)c1,,inactive: -1.75%,
COc1ccc(N2CCN(C(CNC(=O)c3ccc(OC)c(OC)c3)c3cccnc3)CC2)cc1 (configuration not stated),,inactive: -17.1%,
CCn1c(CN2CCN(C)CC2)nc2cc(NC(=O)c3ccc([N+](=O)[O-])cc3)ccc21,,inactive: -6.28%,
NC(=O)C1CCN(c2csc3ccc(F)cc3c2=O)CC1,,inactive: 10.7%,
CCCCSc1nnc2c(n1)OC(c1ccc(Br)s1)Nc1ccccc1-2 (configuration not stated),,inactive: 6.76%,
Cc1ccc(-c2nc(CSc3nnc(C)n4c3cc3occc34)c(C)o2)cc1,,inactive: 42.8%,
Cc1ccc(NC(=O)CN(Cc2ccccc2)S(=O)(=O)c2ccc3nc(C)sc3c2)c(C)c1,,inactive: 1.6%,
CCOc1ccc(-c2nc(-c3ccccc3)c(-c3ccccc3)[nH]2)cc1OCC,,inactive: -6.61%,
O=S(=O)(NCCc1nnc2ccc(SCc3ccccc3Cl)nn12)c1ccccc1,,inactive: 13.4%,
Cc1cc(N2CCC(C)CC2)nc2ccc(NC(=O)Cc3ccccc3Br)cc12,,inactive: -1.38%,

Compound,outcome,"activity change, negative = inhibition",Potency
CC(C)Cn1cc(NC(=O)N2CCN(c3cccc(C(F)(F)F)c3)CC2)c2ccccc2c1=O,,inactive: -1.55%,
COc1ccc(CNC(=O)c2c(O)nc3c(C)cccn3c2=O)cc1,,inactive: 1.12%,
CN(C)c1ccc(CNC(=O)CCCN2C(=O)c3cccnc3Oc3ccc(Cl)cc32)cc1,inactive,,
CCCCOC(=O)c1ccc(-n2nnc3c(sc4nc(C)cc(C)c43)c2=O)cc1,,inactive: 2.82%,
Cc1cccc2nc(-c3ccccn3)c(Nc3ccccc3)n12,,inactive: -13.7%,
Cc1ccc(CNC(=O)Cn2ccn(-c3cccc(Cl)c3)c(=O)c2=O)cc1,,inactive: 4.25%,
O=C1CSC2(C(=O)N(Cc3cccc(C(F)(F)F)c3)c3ccccc32)N1c1ccc(F)c(F)c1 (configuration not stated),,inactive: -0.836%,
N#Cc1ccccc1CSc1nnc(-c2ccc(Br)cc2)o1,,inactive: 6.84%,
Cc1ccc2c(CC(=O)N(Cc3ccc(N(C)C)cc3)Cc3ccco3)coc2c1C,,inactive: -3.17%,
Cc1ccc2oc(-c3ccc(C)c(NC(=O)/C=C/c4ccco4)c3)nc2c1,,inactive: -9.54%,
O=C(NCc1ccccc1Cl)c1nnc(Cc2cccc(F)c2)o1,,inactive: 11.6%,
COc1cccc(-c2cc(C(F)(F)F)n3ncc(C(=O)OC(C)C)c3n2)c1,inactive,,
CCCOc1ccc(C2C(=O)N(C3CCC(C)CC3)CC(=O)N2CCc2ccccc2)cc1OC (configuration not stated),,inactive: -5.77%,
Cc1ccc(-c2noc(CNC(=O)c3ccc(C)c(Cl)c3)n2)cc1,,inactive: 3.51%,
CCc1ccc(OCC(=O)N(Cc2ccc(C(C)C)cc2)C2CCS(=O)(=O)C2)cc1 (configuration not stated),,inactive: -18.9%,
Cc1ccc(-n2c(C)cc(/C=C(\C#N)C(=O)Nc3ccc(C)c(C)c3)c2C)cc1,inactive,,
O=C(Nc1ccccc1C(F)(F)F)c1ccc(F)c(S(=O)(=O)N2CCc3ccccc3C2)c1,,inactive: 4.45%,
CCN(CC)C(=O)C1=C(C)Nc2nc3ccccc3n2C1c1cccc(OC)c1 (configuration not stated),inactive,,
C[C@]12CC[C@@H]3c4ccc(O)cc4CC[C@H]3[C@H]1C[C@@H](O)[C@H]2O,,inactive: 4.43%,
Cc1ccc(NC(=O)c2nc(S(C)(=O)=O)ncc2N(Cc2ccc(C(C)(C)C)cc2)Cc2ccco2)cc1C,,inactive: 4.59%,
O=S(=O)(c1ccc(OC(F)(F)F)cc1)N1CCC(c2nnnn2-c2ccc(F)cc2)CC1,inactive,,
CN(C(=O)CCc1nc(-c2ccccc2F)no1)c1ccc(Cl)cc1,,inactive: 3.88%,
CCOc1ccc(-c2cc3c(=O)n(CC(=O)NCc4ccc(C)cc4)ccn3n2)cc1,,inactive: 3.03%,
CCN1CCSc2ccc(C(=O)NCc3ccc(OC(C)C)cc3)cc21,,inactive: -5.15%,
CCn1cc(C(=O)OCC(=O)Nc2ccc(C)c(Cl)c2)c(=O)c2ccc(C)nc21,,inactive: -3.53%,

Compound,outcome,"activity change, negative = inhibition",Potency
COc1ccc(-c2noc(CSCC(=O)Nc3cc(OC)c(OC)c(OC)c3)n2)cc1OC,,inactive: 18.7%,
CCc1cccc(NC(=O)C2CCCN(c3ncnc4onc(-c5ccc(F)cc5)c34)C2)c1 (configuration not stated),,inactive: 6.66%,
CCCC(O)c1nc2ccccc2n1CCCOc1ccc(Cl)cc1 (configuration not stated),inactive,,
COc1cc(C(=O)NCC(c2ccc3c(c2)OCO3)N2CCOCC2)cc(OC)c1OC (configuration not stated),inactive,,
Cc1ccc(NC(=O)c2c(C)cc(C)nc2SCC(=O)Nc2ccc(Br)cc2)cc1,,inactive: -18.1%,
CC(=O)N1c2ccccc2CC1C(=O)N1CCN(c2ccccc2)CC1 (configuration not stated),,inactive: 2.98%,
CCOC(=O)Cc1ccc(NC(=O)NCc2c(-n3cccc3)sc3c2CCCC3)cc1,,inactive: 8.81%,
COc1ccc(N(Cc2cc3ccccc3[nH]c2=O)C(=O)c2cccc(Cl)c2)cc1,,inactive: 11.6%,
O=C(CS(=O)(=O)c1cccc2nsnc12)Nc1ccccc1Cl,inactive,,
CCCCN1CC(c2nc3ccccc3n2CCCCOc2cc(C)ccc2C)CC1=O (configuration not stated),,inactive: -2.98%,
CCc1nc2ccc(C(=O)NCCc3ccccc3OC)cc2nc1CC,inactive,,
CCOc1ccc(N2CC(NC(=O)c3ccco3)CC2=O)cc1 (configuration not stated),,inactive: 1.66%,
O=C(/C=C/c1ccccc1)Nc1cc(-c2nc3cc(Cl)ccc3o2)ccc1Cl,,inactive: 1.66%,
Cc1cccc(OCC(=O)Nc2cccc(OCc3cc(=O)n4cccc(C)c4n3)c2)c1,,inactive: -15.6%,
Cc1cc2nc(-c3cccc(NC(=O)c4cccc5ccccc45)c3)oc2cc1C,,inactive: -9.31%,
CCOCCCNC(=O)c1ccc(-n2c(-c3ccccc3)cc3c2CCCC3)cc1,,inactive: 8.23%,
CCSc1ncc(Cl)c(C(=O)N2CCN(c3ccccc3OC)CC2)n1,,inactive: -29.3%,
Cc1ccc(NC(=O)/C=C\C(=O)N(c2ccc(C(C)C)cc2)C(C(=O)NCc2ccco2)c2ccc(Cl)cc2)cc1 (configuration not stated),inactive,,
CCCCNC(=O)c1ccc2c(c1)N(Cc1ccc(F)cc1)C(=O)c1ccccc1S2=O (configuration not stated),inactive,,
Cc1cc(C)c(NC(=O)Cn2c(=O)c3cccn3c3ccccc32)c(C)c1,,inactive: -2.29%,
COc1cccc(-n2ccnc2SCC(=O)Nc2c(C)cc(C)cc2C)c1,,inactive: -5.72%,
COc1ccc(CNC(=O)C2CCN(S(=O)(=O)c3c(C)noc3/C=C/c3ccccc3F)CC2)cc1,inactive,,
COc1ccc(Cn2ccc3nc(C)c(C(=O)Nc4ccc(OC)cc4)cc3c2=O)cc1,,inactive: 0.468%,
Cc1cccc(C(=O)OCc2cc(=O)n3ccsc3n2)c1,,inactive: 6.85%,
COc1ccc(CCNC(=O)CCn2c(=O)c3ccccc3n(Cc3ccccc3F)c2=O)cc1OC,inactive,,

Compound,outcome,"activity change, negative = inhibition",Potency
O=c1cc(-c2ccc(O)cc2)oc2cc(O)cc(O)c12,,inactive: -0.608%,
CC(=O)Nc1nc2n(n1)C(c1ccc(F)cc1)C=C(c1ccc(Cl)cc1)N2 (configuration not stated),,inactive: -5.15%,
CC(C(=O)NCCSCc1cccc(Cl)c1)N(c1ccccc1)S(C)(=O)=O (configuration not stated),inactive,,
Cc1ccc(-n2c(C)cc(C(=O)C(=O)Nc3ccccc3)c2C)c(C)c1,,inactive: 6.61%,
Cc1ccc(-c2nc(C)c(CCNC(=O)c3cccs3)s2)cc1,,inactive: 4.51%,
CC(=O)c1cccc(NC(=O)C2CCN(S(=O)(=O)c3ccc4c(c3)CCCN4C(C)=O)CC2)c1,,inactive: 7.17%,
COc1cc(C(=O)Nc2ccccc2-c2nc(-c3ccccc3)no2)cc(OC)c1OC,inactive,,
CC(C)c1ccc(NC(=O)C2CCN(C(=O)c3ccc(F)cc3)CC2)cc1,,inactive: 3.87%,
Cc1ccc(CN2CCCn3nc(C(=O)NCCc4ccccc4C)cc3C2=O)cc1,,inactive: -5.4%,
CCc1cccc(NC(=O)c2cc3c(=O)n(Cc4ccccc4)ccc3nc2C)c1,,inactive: 6.56%,
C[C@H](NC(=O)c1sccc1OCc1ccc(Cl)cc1)c1ccccc1,,inactive: -5.83%,
Cc1c(C(=O)OCc2ccccc2)[nH]c2c1C(=O)CC(c1ccc(C(C)(C)C)cc1)C2 (configuration not stated),,inactive: -0.887%,
CC1CCN(c2nn3c(=O)c(C(=O)NCCCOC(C)C)cnc3s2)CC1,,inactive: -0.939%,
Cc1cccc(N(C)c2nc3ccc(C(=O)c4ccccc4)cc3n3c(C)nnc23)c1,,inactive: -7.38%,
Cc1ccc(-n2nc(C(=O)Nc3ccc(F)cc3F)c3c4ccccc4n(C)c3c2=O)cc1,,inactive: -0.24%,
Cc1ccc(C)c(NC(=O)CN(C)S(=O)(=O)c2cccc3nsnc23)c1,,inactive: 6.36%,
CCN(CC)c1nc2ccccc2nc1C(=O)Nc1ccc(C(C)=O)cc1,inactive,,
COc1ccccc1NC(=O)Cn1cc(S(=O)(=O)Cc2ccccc2)c2ccccc21,inactive,,
CCCCCOc1ccc(/C=C/C(=O)Nc2sc(C)c(C)c2C(=O)OCC)cc1OC,,inactive: -29.6%,
Cc1ccc(C)c(NC(=O)Cn2c(=O)n(CCC(C)C)c(=O)c3cccnc32)c1,,inactive: -3.69%,
CC(C)(C)C1CCc2c(sc(NC(=O)c3cc4ccccc4c(=O)o3)c2C(N)=O)C1 (configuration not stated),inactive,,
Cc1ccc(NC(=O)CSc2nc(=O)n(Cc3cccnc3)c3c2CCC3)cc1F,,inactive: -2.34%,
